We go through 38 compounds from the supplement of paper PMC9446081.

In all, about 39,000 compounds went through this assay and about 220 (0.56%) showed activity. Some of the results follow.
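Also: static incubation at 37 °C against the wild-type strain, values averaged over two biological replicates.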

The test relates to Escherichia coli K-12 BW25113. Briefly: relative growth (OD600 normalised to plate interquartile mean) (fraction); higher = less growth inhibition, active = 0.2 or less. The conditions noted are these: 50 µM; LB; incubation time: overnight (16-24 h).
Turning to `C[C@@H]1CCCCO[C@H](CN(C)Cc2ccc(Cl)c(Cl)c2)[C@@H](C)CN([C@H](C)CO)C(=O)c2cc(NC(=O)c3ccccc3)ccc2O1`, the relative growth was inactive: 1.05.

With `C[C@@H]1CN([C@H](C)CO)C(=O)c2cc(NC(=O)Cc3ccccc3)ccc2O[C@@H](C)CCCCO[C@H]1CN(C)Cc1ccc(Cl)c(Cl)c1`, the relative growth is inactive: 0.992.

Take `C[C@@H]1CN([C@@H](C)CO)C(=O)CCCn2cc(nn2)CO[C@H]1CN(C)S(=O)(=O)c1ccccc1C#N`: the relative growth was inactive: 0.992.

`CCC[C@@H](O)C#Cc1cnc2c(c1)C(=O)N([C@H](C)CO)C[C@H](C)[C@H](CN(C)S(=O)(=O)c1cccc(F)c1)O2`: the relative growth was inactive: 1.03.

As to `CC(=O)NCc1nnnn1C1CCCCC1`, the relative growth was inactive: 0.964.

As for `Nc1c(C(=O)c2ccccc2)no[n+]1[O-]`, the relative growth is inactive: 0.963.

`Cc1noc(C)c1NC(=O)N(C)C[C@H]1Oc2ccc(NS(C)(=O)=O)cc2CC(=O)N([C@H](C)CO)C[C@H]1C`: the relative growth was inactive: 1.02.

For the compound `C[C@@H]1CN([C@H](C)CO)C(=O)Cc2cc(N(C)C)ccc2O[C@H]1CN(C)S(=O)(=O)c1cn(C)cn1`, the relative growth is inactive: 0.994.

In the case of `C[C@H]1CN([C@@H](C)CO)C(=O)c2cc(C3=CCCCC3)cnc2O[C@@H]1CN(C)S(=O)(=O)c1cn(C)cn1`, the relative growth is inactive: 0.99.

For the compound `C[C@@H]1CN([C@@H](C)CO)C(=O)Cc2cc(NC(=O)C3CCCCC3)ccc2O[C@@H]1CN(C)C(=O)Nc1cccc2ccccc12`, the relative growth was inactive: 0.987.

Regarding `C[C@@H]1CCCCO[C@@H](CN(C)Cc2ccc(C(F)(F)F)cc2)[C@H](C)CN([C@@H](C)CO)C(=O)c2cc(NC(=O)Nc3ccc4c(c3)OCO4)ccc2O1`, the relative growth is inactive: 1.01.

On to `Cc1noc(C)c1S(=O)(=O)N(C)C[C@@H]1Oc2ccc(NC(=O)C3CC3)cc2CC(=O)N([C@H](C)CO)C[C@H]1C`, for which the relative growth is inactive: 0.987.

As to `O=C(CN1CCOCC1)N[C@@H]1CC[C@H](CCNS(=O)(=O)c2ccccc2F)O[C@H]1CO`, the relative growth is inactive: 0.979.

With `C=CCOC(=O)[C@@H]1[C@H]2C(=O)O[C@H](c3ccccc3)[C@H](c3ccccc3)N2[C@H](c2ccc(OCCOC(=O)NCCCCCC(=O)NO)cc2)[C@]12C(=O)Nc1ccccc12`, the relative growth is inactive: 1.

`C[C@@H]1CCCCO[C@@H](CN(C)CC2CC2)[C@H](C)CN([C@@H](C)CO)C(=O)c2cc(NC(=O)Nc3ccc(F)cc3)ccc2O1`: the relative growth was inactive: 1.01.

With `C[C@@H]1CCCCO[C@@H](CN(C)C(=O)Cc2ccccc2)[C@H](C)CN([C@H](C)CO)C(=O)c2cc(NS(=O)(=O)c3ccc(F)cc3)ccc2O1`, the relative growth is inactive: 1.03.

Take `C[C@@H]1CN([C@@H](C)CO)C(=O)c2cc(NS(=O)(=O)c3ccc(F)cc3)ccc2O[C@@H](C)CCCCO[C@H]1CN(C)Cc1ccc(C(=O)O)cc1`: the relative growth is inactive: 0.984.

With `COC(=O)[C@H](Cc1ccccc1)N1CC2=CCCC=C[C@H]2[C@@H]1[C@@H](O)CCn1cc(-c2ccc(C(=O)NO)cc2)nn1`, the relative growth was inactive: 0.98.

Turning to `C[C@@H]1CN([C@@H](C)CO)C(=O)c2cc(N(C)C)ccc2O[C@@H](C)CCCCO[C@H]1CN(C)S(C)(=O)=O`, the relative growth was inactive: 0.998.

As for `C[C@H](CO)N1C[C@H](C)[C@@H](CN(C)C(=O)Nc2ccc(C(F)(F)F)cc2)Oc2ccc(NC(=O)Nc3ccc4c(c3)OCO4)cc2C1=O`, the relative growth was inactive: 1.03.

In the case of `CO[C@H](CN(C)C(=O)C1CCOCC1)[C@H](C)CN(C(=O)Nc1ccc(C(F)(F)F)cc1)[C@H](C)CO`, the relative growth was inactive: 0.812.

As to `C=C1C[C@@]23CC[C@@H]4[C@@](C)(CCC[C@@]4(C)C(=O)OC)[C@H]2CC[C@@H]1C3`, the relative growth was inactive: 0.988.

In the case of `CS(=O)(=O)N1C[C@@H](O)COC[C@H]2O[C@H](CC(=O)NCCc3ccncc3)CC[C@@H]21`, the relative growth is inactive: 0.981.

In the case of `Cn1cnc(S(=O)(=O)N[C@H]2CC[C@@H](CC(=O)Nc3ccccc3)O[C@@H]2CO)c1`, the relative growth is inactive: 0.97.

With `C[C@@H]1CN([C@H](C)CO)C(=O)Cc2cc(NS(C)(=O)=O)ccc2O[C@H]1CN(C)C(=O)Nc1ccc(F)cc1`, the relative growth is inactive: 0.989.

On to `C=CCN(CCCC)C(=O)[C@H]1N(CCOCCO)C(=O)[C@H]2[C@H](C(=O)O)[C@@H]3C=C[C@@]21O3`, for which the relative growth is inactive: 1.02.

Consider `Cc1ccccc1S(=O)(=O)N1C[C@@H](O)COC[C@@H]2O[C@@H](CC(=O)N3CCN(C)CC3)CC[C@H]21`, for which the relative growth is inactive: 1.

Consider `C[C@@H]1CCCCO[C@H](CN(C)C(=O)Nc2cccc3ccccc23)[C@H](C)CN([C@H](C)CO)C(=O)c2cc(NS(=O)(=O)c3cn(C)cn3)ccc2O1`, for which the relative growth is inactive: 0.965.

In the case of `C[C@@H]1CN([C@@H](C)CO)C(=O)c2cc(/C=C/c3ccccc3)cnc2O[C@@H]1CN(C)S(=O)(=O)c1cn(C)cn1`, the relative growth is inactive: 1.

For the compound `C[C@@H]1CCCCO[C@H](CN(C)C(=O)Nc2ccc(C(F)(F)F)cc2)[C@H](C)CN([C@@H](C)CO)C(=O)c2cc(NC(=O)Nc3cccc4ccccc34)ccc2O1`, the relative growth is inactive: 1.02.

For the compound `O=C(C[C@H]1CC[C@H](NC(=O)c2ccc(F)cc2)[C@H](CO)O1)NCc1ccncn1`, the relative growth was inactive: 1.01.

As for `Cc1sc2ncnc(N3CCC[C@@H](Cn4cc(C(C)(C)N)nn4)C3)c2c1C`, the relative growth is inactive: 0.979.

Regarding `COc1ccc(NC(=O)Nc2ccc3c(c2)C(=O)N([C@H](C)CO)C[C@@H](C)[C@H](CN(C)C(=O)NC2CCCCC2)OCCCC[C@H](C)O3)cc1`, the relative growth is inactive: 1.03.

As for `CC(C)NC(=O)N(C)C[C@@H]1Oc2c(NS(=O)(=O)c3ccc(F)cc3)cccc2C(=O)N([C@@H](C)CO)C[C@H]1C`, the relative growth was inactive: 0.976.

On to `O=C(C[C@H]1CC[C@@H]2[C@H](COC[C@H](O)CN2Cc2cccc(C(F)(F)F)c2)O1)NCCc1ccncc1`, for which the relative growth was inactive: 1.01.

Regarding `CCN1CCN(C2=C(NS(=O)(=O)c3ccc(Br)cc3)C(=O)c3ccccc3C2=O)CC1`, the relative growth was inactive: 0.987.

With `COc1cccc(NC(=O)N[C@@H]2CC[C@H](CC(=O)N3CCN(C)CC3)O[C@@H]2CO)c1`, the relative growth was inactive: 1.03.

`COc1ccc(S(=O)(=O)N(C)C[C@@H]2Oc3ccc(NS(C)(=O)=O)cc3CC(=O)N([C@H](C)CO)C[C@H]2C)cc1`: the relative growth is inactive: 1.
